Among all 48,000 compounds or so, about 120 (0.25%) were called active. Roughly 4% stayed inconclusive and do not appear here. Calls follow the shape of the dose curve; as a rule, active = well fitted activation curve with a large enough effect; inconclusive = small, poorly fitted or top-dose-only effect, or another doubt; inactive = no such curve, though single readings can be large or run the other way. The list shows a part of the results.
Assay: Primary qHTS for Identification of Small Molecule Activators of Huntingtin-Antisense Promoter Activity; also: nearly all actives have a fitted effect of over 55% in size
Conditions: HEK293 HTT-AS promoter firefly luciferase reporter (activity 0% = vehicle and -100% = no light), 24 h; series mostly up to 57.5 µM; activity change, positive = activation: at the top concentration
Outline: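 Firefly luciferase readout (Dual-Glo, 10 min RT) after 24 h, 37 °C compound exposure (final up to 57.5 uM) of HEK293 reporter cells cultured 24 h beforehand; PTC124 at 50 uM final as control inhibitor; activity scaled vehicle 0%, zero RLU -100%.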

Activity change, positive = activation, inactive:
CCSc1ncc(Cl)c(C(=O)Nc2ccc(S(=O)(=O)N3CCC(C)CC3)cc2)n1 -18.1%
CC(=O)c1cccc(NC(=O)C2=CC(c3ccc4c(c3)OCO4)=NS(=O)(=O)N2C)c1 -17%
Cc1cccc(CNC(=O)C(=O)Nc2ccccc2C)c1 6.23%
CC1CCCCN1CCCNC(=O)c1[nH]c2ccccc2c1Sc1ccc(Cl)cc1 (stereo not drawn) -6.58%
COc1ccccc1CNC(=O)CCC1N=C2c3ccccc3N=C(SCC(N)=O)N2C1=O (stereo not drawn) -35.1%
Cc1ccc(CNC(=O)c2ccc(CSCc3ccccc3Cl)o2)cc1 -11%
Cc1ccc(S(=O)(=O)NCC(c2ccc(N(C)C)cc2)N2CCc3ccccc32)cc1C (stereo not drawn) -16.3%
Cc1cccc(C)c1NC(=O)CSc1nc2ncccc2o1 -5.44%
COc1ccc(Cn2c(CCC(=O)Nc3cccc(OC)c3)nc3cccnc32)cc1 -22%
CC(=O)N1CCc2cc(CNC(=O)Nc3cc(Cl)ccc3C)ccc21 -19.4%
CCc1ccc(CNC(=O)C2CCN(c3nc4ccccc4nc3C(F)(F)F)CC2)cc1 -13.1%
CCN1C(=O)c2ccccc2Sc2ccc(NC(=O)Nc3ccccc3OC)cc21 -39.4%
Cc1ccc(NC(=O)c2c(NC(=O)Cc3ccccc3)sc3c2CCC3)cc1 -26.1%
Cc1ccc(C)c(OCCn2cc(C(=O)c3cccs3)c3ccccc32)c1 -30.7%
CC(C)(C)CC(=O)OCC(=O)[C@@]1(O)CC[C@H]2[C@@H]3CCC4=CC(=O)C=C[C@]4(C)[C@H]3[C@@H](O)C[C@@]21C -26.1%
Cc1cccc(C(=O)N2CCc3cc(CNC(=O)c4ccc(Br)o4)ccc32)c1 -26.7%
O=[N+]([O-])c1ccc(S(=O)(=O)NCc2nc3cccnc3n2Cc2ccccc2Cl)cc1 -28.2%
COC(=O)c1cc(NC(=O)C2CCCN(S(=O)(=O)c3c(C)n[nH]c3C)C2)cc(C(=O)OC)c1 (stereo not drawn) -21.3%
COc1ccc(C)cc1NC(=O)Cn1c(=O)nc(-c2ccccc2F)c2cc(Cl)ccc21 1.97%
O=c1nc2c(-c3ccc(F)cc3Cl)n[nH]n2c2ccccc12 9.79%
COCc1cc(C)nc2sc(C(=O)Nc3ccc(OC(F)(F)F)cc3)c(N)c12 -7.96%
Cc1c(C(=O)OCC2CCCCC2)[nH]c2c1C(=O)CC(c1ccc(F)cc1)C2 (stereo not drawn) -11%
CCCCn1c(=N)c(S(=O)(=O)c2ccc(Cl)cc2)cc2c(=O)n3cccc(C)c3nc21 0.956%
CC(C)(C)OC(=O)N1CCC(c2c(C(=O)NCc3ccccc3)cnn2-c2ccccc2)CC1 -4.41%
CCc1ccc(CNC(=O)c2cc3c(=O)n(CC)c4ccccc4c3s2)cc1 3.93%
O=C(NC(=O)c1ccccc1)Nc1ccc(-n2nc(C(F)(F)F)cc2C(F)(F)F)cc1 14.4%
COc1ccc(OC)c(NC(=O)Cn2c(=O)n(CC3CCCO3)c(=O)c3cc(OC)c(OC)cc32)c1 (stereo not drawn) -12.3%
COc1ccc(NC(=O)CN(C)S(=O)(=O)c2ccc3c(c2)CCC(=O)N3)c(OC)c1 -8.96%
CCOc1ccccc1CNC(=O)CN1C(=O)CSc2ccc(S(=O)(=O)N3CCOCC3)cc21 -17.2%
O=C(c1ccc2c(c1)CCN2S(=O)(=O)c1ccccc1)N1CCN(c2cccc(Cl)c2)CC1 -8.27%
CCOC(=O)CNc1nc2ccccc2n2c(C)nnc12 1.84%
CCc1ccc(NC(=O)CSc2nc3c(sc4ccccc43)c(=O)n2CCCOC)cc1 -9.54%
Cc1ccc(CNC(=O)c2cnc(N3CCCCC3)c3ccccc23)cc1 -20.3%
CCN1CCC[C@H]1CNC(=O)c1c(O)c(Cl)cc(Cl)c1OC -1.45%
Cc1ccc(C)c(NC(=O)Cn2nnc(C(=O)NCCc3ccccc3)c2N)c1 -14.4%
CCOC(=O)c1ccc(NC(=O)C(CC)Sc2nnc3c4ccccc4n(C)c3n2)cc1 (stereo not drawn) -4.87%
CC[C@@H]([C@H](C)O)n1ncn(-c2ccc(N3CCN(c4ccc(OC[C@@H]5CO[C@@](Cn6cncn6)(c6ccc(F)cc6F)C5)cc4)CC3)cc2)c1=O -10.9%
Cc1cc(C)c(NC(=O)Cn2c(=O)n(Cc3ccc4c(c3)OCO4)c(=O)c3ccccc32)c(C)c1 -10.4%
CCC1=Nc2cc(C(=O)NCc3ccccc3Cl)ccc2Sc2ccc(C)cc21 -32.7%
N#Cc1cccc(Nc2ncnc3c2cnn3-c2cccc(Cl)c2)c1 17.5%
O=C(CSc1nncn2c1cc1occc12)Nc1ccccc1C(F)(F)F -30.8%
CCc1ccccc1NC(=O)CN(c1cccc(C)c1C)S(C)(=O)=O -23.1%
CCOC(=O)C1CCCN(S(=O)(=O)c2ccc3c(c2)CCN3C(=O)CC)C1 (stereo not drawn) -26.7%
Cc1cccc2sc(N3CCN(C(=O)CS(=O)(=O)c4ccc(F)cc4)CC3)nc12 -11.8%
CCOC(=O)c1c(C)[nH]c(CCC(=O)Nc2c(Cl)cc(OC)cc2OC)c1C -25.4%
CCCc1nc2nc(C)c(NS(=O)(=O)c3ccc(F)cc3)c(=O)n2[nH]1 9.19%
Cc1cc(C(=O)N2CCN(c3ccc(F)cc3)CC2)c2c(C)nn(-c3cccc(Cl)c3C)c2n1 -13.4%
CCc1ccc(S(=O)(=O)c2cnc3ccc(OC)cc3c2N2CCCC(C)C2)cc1 (stereo not drawn) -24%
COc1ccc(CNC(=O)Cn2c(=O)nc(-c3ccccc3F)c3cc(Cl)ccc32)cc1OC -9.7%
CCOC(=O)c1noc2ncnc(N3CCN(c4cccc(Cl)c4)CC3)c12 -10.1%
CCOC(=O)N1CCc2c(sc3c2c(=O)n(-c2ccc(Cl)cc2)c(=O)n3Cc2cccc(OC)c2)C1 -24.9%
COc1ccc(-c2nc3nc(C)cc(N4CCN(c5cccc(C(F)(F)F)c5)CC4)n3n2)cc1 -6.3%
COCCCNC(=O)c1ccc(Cn2c(=O)c3ccccc3n(CC(=O)Nc3ccc(C)cc3C)c2=O)cc1 -4.11%
Cc1cc(C)cc(NC(=O)Cn2nnc(C(=O)NCc3ccccc3Cl)c2N)c1 -21.6%
CCOc1ccc(C(=O)Nc2ccccc2C(=O)OCc2cc(=O)n3nc(C4CC4)sc3n2)cc1 35%
COc1ccc(CCNC(=O)c2cc3c(s2)-c2c(C)cccc2OC3)c(OC)c1 -20.9%
Cc1cccc(N2CC(c3nc4ccccc4n3CCC3CCCCC3)CC2=O)c1 (stereo not drawn) -47.2%
Cc1cccc2c1-c1sc(C(=O)NCc3ccc(Cl)cc3)cc1CO2 -3.99%
CCN(Cc1ccccc1)C(=O)c1cc2c(=O)oc3ccc(C)cc3c2s1 -6.4%
Cc1ccc(-c2nc(S(=O)(=O)c3ccc(C)cc3)c(SCC(=O)Nc3ccc(F)cc3)o2)cc1 -8.81%
CCc1ccc(S(=O)(=O)c2nnn3c2nc(Nc2cc(OC)cc(OC)c2)c2cc(Cl)ccc23)cc1 0%
CCOc1ccccc1CNC(=O)c1cn(-c2ccc(OC)cc2)c(=O)c2ccccc12 -20.4%
COc1cccc(C2=C(C(C)=O)Sc3nnc(C4CCCCC4)n3N2C(C)=O)c1 -44%
CCOc1ccc(NC(C)=O)cc1 -9.62%
COc1cccc(CNC(=O)CSc2n[nH]c(-c3ccccc3Cl)n2)c1OC -19.9%
Cc1cccc(NC(=O)CSc2nc(=O)n(Cc3ccco3)c3c2CCC3)c1C -18.8%
CCOc1ccc(NC(=O)[C@H]2O[C@@H]3OC(C)(C)O[C@@H]3[C@H]3OC(C)(C)O[C@H]32)cc1 -48.4%
CN1CCC[C@@H]1CCO[C@](C)(c1ccccc1)c1ccc(Cl)cc1 -17.3%
O=c1c(N2CCN(c3cccc(Cl)c3)CC2)csc2ccccc12 -10.3%
Cc1cc(C)cc(NC(=O)C(=O)NCCCN2CCOCC2)c1 -4.96%
Cc1ccc2cc3cc(C(=O)N4CCN(c5ccccc5)CC4)oc3nc2c1 -14.3%
CCc1nn(CC(=O)NCc2ccccc2Cl)c(=O)c2cc3ccccc3n12 -6.51%
CCOc1ccc(CN(C(=O)c2nc(SC)ncc2Cl)C2CCS(=O)(=O)C2)cc1 (stereo not drawn) 4.97%
O=C(Nc1nc2ccc(S(=O)(=O)N3CCCC3)cc2s1)c1ccc(F)cc1 -25.5%
CC1CCCCN1CCCNC(=O)c1ccc2c(c1)sc1nc(-c3ccc(F)cc3)cn12 (stereo not drawn) 13.7%
CCc1ccc(Oc2c(C(F)(F)F)oc3c(CN4CCN(CC)CC4)c(O)ccc3c2=O)cc1 -26.9%
COc1ccc(C(=O)NCC(c2ccc(N(C)C)cc2)N2CCCC2)cc1 (stereo not drawn) -8.49%
CC(=O)c1ccc(N2CCN(c3nc4c(S(=O)(=O)c5ccc(C)c(C)c5)nnn4c4ccc(Cl)cc34)CC2)cc1 6.48%
Cc1cc(C)cc(-n2ccnc2SCC(=O)Nc2ccc(C)cc2C)c1 -17.9%
CCC(=O)N1CCc2cc(Br)cc(S(=O)(=O)CCC(=O)N3CCN(c4ccc(OC)cc4)CC3)c21 22.3%
CCOc1ccc2oc(=O)cc(CN3CCN(Cc4ccc(F)cc4)CC3)c2c1 -23.5%
O=C(CCCn1c(=O)c2ccccc2n(CC(=O)Nc2cccc(Cl)c2)c1=O)NCc1ccc2c(c1)OCO2 -1.36%
CCC(C(=O)Nc1cc(OC)ccc1OC)n1c(=O)c(C(F)(F)F)nc2ccccc21 (stereo not drawn) -0.573%
CCC(=O)Nc1ccccc1-c1nc2ccccc2n(C(C)C(=O)Nc2cccc(Cl)c2C)c1=O (stereo not drawn) -16.3%
COc1cc(NC(=O)CNC(=O)Cn2ccc3ccccc3c2=O)cc(OC)c1OC -19.3%
COCCn1c(C)cc(O)c(C(c2ccc(Cl)cc2)N2CCN(c3ccccc3)CC2)c1=O (stereo not drawn) 11%
CN1C(C(=O)c2ccccc2)=C(NC(=O)c2ccccc2Br)c2ccccc2S1(=O)=O -5.74%
COc1ccc(NC(=O)Nc2cccc(OCc3cc(=O)n4cccc(C)c4n3)c2)c(OC)c1 -14.2%
CCCCCSc1nnc2c(n1)OC(CC)Nc1ccc(Br)cc1-2 (stereo not drawn) -25.5%
Cc1nc2ccc(S(=O)(=O)NC(C(=O)N3CCN(c4ccc(Cl)cc4)CC3)C(C)C)cc2s1 (stereo not drawn) -27.8%
O=c1n(Cc2ccc(Cl)cc2)c2ccccc2c2nc(-c3ccccc3)nn12 -14.1%
CCc1ccc(NC(=O)Cc2csc(COc3cccc(C)c3)n2)cc1 -8.09%
CCn1c(=O)cc(SCC(=O)NCCc2cccc(C)c2)c2ccccc21 -0.106%
